Laboratory results taken from the supplement of paper PMC9446081.
About 220 (0.56%) of roughly 39,000 compounds showed activity. The list shows a part of the results.
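Note: static incubation at 37 °C against the wild-type strain, values averaged over two biological replicates.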

Each compound was assayed on Escherichia coli K-12 BW25113 (assay: relative growth (OD600 normalised to plate interquartile mean) (fraction); higher = less growth inhibition, active = 0.2 or less). Conditions: 50 µM; LB; incubation time: overnight (16-24 h).
With COCC(=O)N1C[C@@H](C)[C@H](OC)CN(C)C(=O)c2cc(NC(=O)c3cc(C)on3)ccc2OC[C@@H]1C the relative growth was inactive: 0.955. For C[C@@H]1CN([C@H](C)CO)C(=O)Cc2cc(NC(=O)NC3CCCCC3)ccc2O[C@@H]1CN(C)Cc1ccc(C(=O)Nc2ccccc2N)cc1, the relative growth was inactive: 1.02. With C[C@H]1CCCCO[C@H](CN(C)S(C)(=O)=O)[C@@H](C)CN([C@@H](C)CO)C(=O)c2cc(NS(=O)(=O)c3ccccc3)ccc2O1 the relative growth was inactive: 1.02. For COCC(=O)N(C)C[C@H]1Oc2cc(C#C[C@@H](C)O)ccc2S(=O)(=O)N([C@@H](C)CO)C[C@@H]1C, the relative growth was inactive: 1.03. In the case of CS(=O)(=O)Cc1ccc(C(=O)O)cc1, the relative growth is reported as inactive: 0.988. With CC(C)NC(=O)Nc1cccc2c1O[C@@H](CN(C)C(=O)NC1CCCCC1)[C@@H](C)CN([C@@H](C)CO)C2=O the relative growth was inactive: 1.01. With CCC=C(C(=O)NC1C(=O)N2C(C(=O)OCOC(=O)C(C)(C)C)=C(COC(N)=O)CSC12)c1csc(N)n1.Cl (stereo unspecified) the relative growth was active: 0.0724. For C[C@H](CO)N1C[C@H](C)[C@H](CN(C)S(=O)(=O)c2cccs2)Oc2ccc(NS(=O)(=O)c3cccs3)cc2C1=O, the relative growth was inactive: 1.01. With C[C@H]1CN([C@@H](C)CO)C(=O)Cc2cc(NS(=O)(=O)c3ccccc3)ccc2O[C@@H]1CN(C)Cc1ccc(C(=O)O)cc1 the relative growth was inactive: 0.987. In the case of C[C@H](CO)N1C[C@H](C)[C@H](CN(C)Cc2ccncc2)Oc2ccc(NC(=O)Nc3cccc4ccccc34)cc2C1=O, the relative growth is reported as inactive: 0.982. CN1C(=O)c2cc(NC(=O)c3cccs3)ccc2OC[C@@H]2O[C@H](CC(=O)NCC(F)(F)F)CC[C@@H]21 was tested, and the relative growth was inactive: 0.999. For C=CC[C@@H](CC(=O)N(CCO)Cc1ccccc1)C(=O)NCCOC(=O)[C@H](CC=C)CC(=O)OC(C)(C)C, the relative growth was inactive: 0.984. With COc1cc(OC)cc(C(=O)OCCN2CCN(CCOC(=O)c3cc(OC)cc(OC)c3)CC2)c1 the relative growth was inactive: 0.958. In the case of C[C@H](CO)N1C[C@H](C)[C@H](CN(C)S(=O)(=O)c2ccccc2)OCCCC[C@H](C)Oc2ccc(NC(=O)c3ccccc3)cc2C1=O, the relative growth is reported as inactive: 1.03. CN(C)CCCNC(=O)C[C@@H]1CC[C@@H]2[C@H](COc3ccc(NC(=O)c4cccc(F)c4)cc3C(=O)N2C)O1 was tested, and the relative growth was inactive: 0.941. C[C@H]1CN([C@@H](C)CO)S(=O)(=O)c2ccc(C#CCC3CCCC3)cc2O[C@@H]1CN(C)C(=O)CN(C)C was tested, and the relative growth was inactive: 0.989. In the case of Brc1ccc(-c2ccc(C3CCCCC3)cn2)cc1, the relative growth is reported as inactive: 1.02. In the case of Cc1noc(C)c1S(=O)(=O)Nc1ccc2c(c1)C(=O)N([C@@H](C)CO)C[C@@H](C)[C@@H](CN(C)C(=O)Nc1cccc3ccccc13)OCCCC[C@H](C)O2, the relative growth is reported as inactive: 1.02. With C[C@@H]1CN([C@H](C)CO)C(=O)c2cc(NS(=O)(=O)c3cccs3)ccc2O[C@@H]1CN(C)Cc1ccc(-c2ccccc2)cc1 the relative growth was inactive: 1.04. With C[C@@H]1CCCCO[C@@H](CN(C)S(=O)(=O)c2ccc(F)cc2)[C@@H](C)CN([C@@H](C)CO)C(=O)c2cc(NC(=O)CCC(F)(F)F)ccc2O1 the relative growth was inactive: 0.975. Cc1ccc(S(=O)(=O)Nc2ccc3c(c2)CC(=O)N([C@H](C)CO)C[C@H](C)[C@H](CN(C)S(C)(=O)=O)O3)cc1 was tested, and the relative growth was inactive: 1.02. For CN1C[C@@H]2CN(C(=O)c3ccnn3C)C[C@H]2C1=O, the relative growth was inactive: 1.02. For Cc1noc(C)c1NC(=O)Nc1ccc2c(c1)CC(=O)N([C@@H](C)CO)C[C@@H](C)[C@H](CN(C)S(=O)(=O)c1c(C)noc1C)O2, the relative growth was inactive: 0.992. CO[C@@H]1CN(C)C(=O)c2cc(NC(=O)C3CC3)ccc2OC[C@@H](C)N(C(=O)CN2CCOCC2)C[C@H]1C was tested, and the relative growth was inactive: 1.02. For COc1ccc2c(c1)OCC(Cc1ccc(O)c(OC)c1)C2=O (stereo unspecified), the relative growth was inactive: 1.05. C[C@@H]1CN([C@H](C)CO)C(=O)Cc2cc(NC(=O)Nc3cccc4ccccc34)ccc2O[C@H]1CN(C)C(=O)Nc1ccccc1 was tested, and the relative growth was inactive: 1. In the case of Nc1ccc(C(=O)O)cc1, the relative growth is reported as inactive: 0.922. Cc1noc(C)c1NC(=O)N(C)C[C@H]1Oc2ccc(NC(=O)NC(C)C)cc2CC(=O)N([C@@H](C)CO)C[C@@H]1C was tested, and the relative growth was inactive: 1.01. In the case of NC(=O)[C@H]1Cc2ccccc2N1, the relative growth is reported as inactive: 0.985. In the case of C[C@H](CO)N1C[C@H](C)[C@@H](CN(C)S(=O)(=O)c2ccc(F)cc2)OCCCC[C@H](C)Oc2ccc(NS(=O)(=O)c3ccc(Cl)cc3)cc2C1=O, the relative growth is reported as inactive: 1.01. C[C@H](CO)N1C[C@H](C)[C@H](CN(C)Cc2ccc(Cl)c(Cl)c2)OCCCC[C@H](C)Oc2ccc(NC(=O)NC3CCCCC3)cc2C1=O was tested, and the relative growth was inactive: 1.03. With Cc1ccc(S(=O)(=O)N[C@@H]2CC[C@H](CCNC(=O)CN3CCOCC3)O[C@H]2CO)cc1 the relative growth was inactive: 1.02. C[C@@H]1CCCCO[C@@H](CN(C)C(=O)Nc2ccc(C(F)(F)F)cc2)[C@H](C)CN([C@H](C)CO)C(=O)c2cc(NC(=O)Nc3ccccc3)ccc2O1 was tested, and the relative growth was inactive: 1.03. With Cc1noc(C)c1NC(=O)Nc1ccc2c(c1)C(=O)N([C@H](C)CO)C[C@@H](C)[C@H](CN(C)S(=O)(=O)c1ccccc1)OCCCC[C@@H](C)O2 the relative growth was inactive: 0.986. In the case of Cc1ccc(S(=O)(=O)Nc2ccc3c(c2)C(=O)N([C@@H](C)CO)C[C@@H](C)[C@@H](CN(C)S(C)(=O)=O)O3)cc1, the relative growth is reported as inactive: 0.899. In the case of C[C@@H]1CN([C@@H](C)CO)C(=O)c2cc(NC(=O)CCCCCC(=O)Nc3ccccc3N)ccc2O[C@@H]1CN(C)C(=O)Nc1ccc(F)cc1, the relative growth is reported as inactive: 1.01. In the case of Cc1cc(=O)n2nc(C(=O)O)nc2[nH]1, the relative growth is reported as inactive: 0.991. C=CC[C@@H](CC(=O)NCCO)C(=O)N[C@H](COC(=O)[C@@H](CC=C)CC(=O)OC(C)(C)C)Cc1ccccc1 was tested, and the relative growth was inactive: 0.849. For C[C@H]1CN([C@@H](C)CO)C(=O)c2cc(N(C)C)ccc2O[C@H]1CN(C)S(C)(=O)=O, the relative growth was inactive: 0.993. O=C(C[C@H]1C=C[C@H](NC(=O)c2cnccn2)[C@H](CO)O1)NCc1ccccc1F was tested, and the relative growth was inactive: 1.03. With COc1ccc(NC(=O)N(C)C[C@H]2Oc3c(NC(=O)Nc4ccc(C(F)(F)F)cc4)cccc3C(=O)N([C@@H](C)CO)C[C@H]2C)cc1 the relative growth was inactive: 1.02. With C[C@@H]1CCCCO[C@@H](CN(C)CC2CCCCC2)[C@H](C)CN([C@@H](C)CO)C(=O)c2cc(NC(=O)Nc3ccccc3)ccc2O1 the relative growth was inactive: 0.925. COc1cccc(C#Cc2ccc3c(c2)O[C@@H](CN(C)C(=O)CN2CCOCC2)[C@@H](C)CN([C@H](C)CO)S3(=O)=O)c1 was tested, and the relative growth was inactive: 0.995. With O=C(CCCCCNC(=O)OCc1ccc(CO[C@H]2C[C@@H](c3ccc4c(c3)OCO4)C=C(C(=O)N3CCOCC3)O2)cc1)NO the relative growth was inactive: 0.979. COc1ccc(NC(=O)Nc2ccc3c(c2)C(=O)N([C@H](C)CO)C[C@H](C)[C@H](CN(C)C(=O)Nc2ccccc2)OCCCC[C@H](C)O3)cc1 was tested, and the relative growth was inactive: 1.05. In the case of c1cc(CCN2CCNCC2)ccn1, the relative growth is reported as inactive: 1.02. In the case of C[C@@H]1CN([C@@H](C)CO)C(=O)Cc2cc(NS(C)(=O)=O)ccc2O[C@H]1CN(C)Cc1ccc(C(=O)O)cc1, the relative growth is reported as inactive: 1.01. CO[C@H](CN(C)S(=O)(=O)c1ccc(Cl)cc1)[C@H](C)CN([C@@H](C)CO)S(=O)(=O)c1cccc(Cl)c1 was tested, and the relative growth was inactive: 1.01. C[C@@H]1CCCCO[C@@H](CN(C)C(=O)CCC(F)(F)F)[C@@H](C)CN([C@H](C)CO)C(=O)c2cc(NC(=O)Nc3ccc4c(c3)OCO4)ccc2O1 was tested, and the relative growth was inactive: 0.99. For C[C@@H]1CN([C@@H](C)CO)C(=O)c2c(c3ccccc3n2C)-c2ccccc2CO[C@H]1CN(C)C(=O)CCC(F)(F)F, the relative growth was inactive: 0.975. With C[C@@H]1CN([C@@H](C)CO)S(=O)(=O)c2ccc(-c3cncnc3)cc2O[C@@H]1CN(C)C(=O)c1cccc(F)c1 the relative growth was inactive: 0.966. C[C@H](CO)N1C[C@H](C)[C@@H](CN(C)Cc2ccccc2)Oc2c(NC(=O)Nc3ccc(C(F)(F)F)cc3)cccc2C1=O was tested, and the relative growth was inactive: 0.77. With CC(=O)N1CCn2nncc2C[C@@]1(C)C1CC1 the relative growth was inactive: 0.965. For COc1ccc(NC(=O)N(C)C[C@@H]2OCCCC[C@@H](C)Oc3ccc(NC(=O)C4CCCCC4)cc3C(=O)N([C@H](C)CO)C[C@@H]2C)cc1, the relative growth was inactive: 1.03. CCOc1ccn(-c2ccc(F)cc2)c(=O)c1C(=O)Nc1ccc(Oc2ccnc(N)c2Cl)c(F)c1 was tested, and the relative growth was inactive: 1.01. With C[C@@H]1CN([C@@H](C)CO)S(=O)(=O)c2ccc(-c3ccncc3)cc2O[C@H]1CN(C)Cc1ccc(Oc2ccccc2)cc1 the relative growth was inactive: 0.995. For CN1C(=O)c2cc(NC(=O)c3cscn3)ccc2OC[C@H]2O[C@@H](CC(=O)N3CCOCC3)CC[C@H]21, the relative growth was inactive: 0.996. In the case of O=C(C[C@@H]1CC[C@@H](NS(=O)(=O)c2ccccc2F)[C@@H](CO)O1)NCCCN1CCOCC1, the relative growth is reported as inactive: 1.05. C[C@H](CO)N1C[C@H](C)[C@@H](CN(C)C(=O)Nc2ccc(F)cc2)Oc2ccc(NC(=O)C3CC3)cc2CC1=O was tested, and the relative growth was inactive: 0.979. For COc1ccc(CN(C)C[C@H]2OCCCC[C@@H](C)Oc3ccc(NS(=O)(=O)c4ccc(OC)cc4)cc3C(=O)N([C@H](C)CO)C[C@@H]2C)cc1, the relative growth was inactive: 0.984. In the case of C#CCCCCCCCCCCC[C@H](O)C[C@H](O)CO.C=CCCCCCCCCCCC[C@H](O)C[C@H](O)CO, the relative growth is reported as inactive: 0.97.
